Laboratory results as given in PubChem BioAssay AID686978 (National Center for Advancing Translational Sciences (NCATS), 2013).
About 64,000 (15%) of roughly 420,000 compounds were called active. The shares of active, inactive and inconclusive entries below differ from those in the screen. The call rests on the fitted dose curve; in most records, active means well fitted inhibition curve with a large enough effect; inconclusive means small, poorly fitted or top-dose-only effect; inactive means flat fitted curve, though single readings scatter. Potencies of inconclusive entries are left out as doubtful fits.

Test: qHTS for Inhibitors of human tyrosyl-DNA phosphodiesterase 1 (TDP1): qHTS in cells in absence of CPT; further: nearly all actives have a fitted effect of over 55% in size
Conditions: DT40 Tdp1-/- hTDP1 cells, no CPT, ATP luminescence, 48 h; activity change, negative = growth inhibition: at 46.2 µM (top of the series) unless noted
Procedure, shortened: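 Growth kinetics read by CellTiter-Glo luminescence after ≥48 hr at 37 °C. Cells: DT40 Tdp1-/- stably carrying human TDP1, 400 per well, compound exposure in the absence of CPT (DMSO vehicle).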
On the % scale 0 is the no-effect control and ±100 the full control effect; potency means the concentration at half of the fitted maximal effect; tags describe the fitted curve by direction and shape.

| SMILES | Potency | activity change, negative = growth inhibition |
| --- | --- | --- |
| C=CCOC(=O)N1CCC2CC1c1cc(-c3ccc(OC)cc3)ccc12 (stereo not drawn) | active: 16.4 µM |  |
| Cc1c(NC(=O)C(C)OC(=O)c2cccs2)c(=O)n(-c2ccccc2)n1C (stereo not drawn) |  | inactive: 19.5% |
| CCCCc1cc(=O)oc2c(C)c(OCC(=O)N3CCC(C(N)=O)CC3)ccc12 | inconclusive [inhibitor, single point] |  |
| CCOC(=O)c1cc(C)n(CCc2ccccc2)c1C |  | inactive: -24.1% |
| O=[N+]([O-])c1cccc(-c2nc3ccc([N+](=O)[O-])cc3[nH]2)c1 | active: 20.6 µM |  |
| CCOC(=O)c1cc(-c2ccccc2)n(-c2cccc(C(=O)N(C)c3ccc(C)cc3)c2)c1C | active: 8.2 µM |  |
| Cc1cccc(C)c1OCC(=O)N(Cc1cccs1)C1CCS(=O)(=O)C1 (stereo not drawn) | inconclusive [inhibitor, single point] |  |
| O=C(NCCCCCCNC(=O)ON=C1CCCCC1)ON=C1CCCCC1 | inconclusive [inhibitor, full curve] |  |
| CCC1CCCCN1C(=O)c1sc2nc(C)nc(N(CC)CC)c2c1C (stereo not drawn) | active: 16.4 µM |  |
| O=C(COC(=O)C1c2ccccc2Oc2ccccc21)NC1CCS(=O)(=O)C1 (stereo not drawn) | inconclusive [inhibitor, single point] |  |
| Cc1c(OCC(=O)OC(C)(C)C)ccc2c3c(c(=O)oc12)CCC3 | inconclusive [inhibitor, partial curve, poor fit] |  |
| O=C(CC1C[C@H](C(=O)N2CCCCC2)[C@@]2(CCc3ccccc3)c3[nH]c4ccccc4c3CCN2C1=O)NCc1ccco1 (stereo partly drawn) | active: 20.6 µM |  |
| CCOC(=O)c1c(C)[nH]c(C(=O)OC(C)C(=O)NC2CCCCC2C)c1C (stereo not drawn) | inconclusive [inhibitor, single point] |  |
| O=C(CN1Cc2ccccc2OC(c2ccsc2)C1)NCc1ccc2c(c1)OCO2 (stereo not drawn) | inconclusive [inhibitor, single point] |  |
| Cc1ccc(NC(=O)C2CCCN(c3cnccn3)C2)c(C)c1 (stereo not drawn) | inconclusive [inhibitor, partial curve] |  |
| CCCCCCCCn1c(=O)c(C(=O)OC)c(N)c2ccccc21 | active: 3.26 µM |  |
| COc1ccc(CNC(=O)CSc2n[nH]c(N)n2)cc1 |  | inactive: -25.2% |
| CC(C)C[C@H]1COCCS(=O)(=O)N1Cc1cccc(Cl)c1 | inconclusive [inhibitor, single point] |  |
| N#Cc1ccccc1NC(=O)COC(=O)/C=C/c1cn(-c2ccccc2)nc1-c1ccc(Cl)cc1 | inconclusive [inhibitor, full curve] |  |
| O=C(NCc1ccccc1)C(c1ccccc1F)n1c(=O)c(-c2cc3ccccc3[nH]2)nc2ccccc21 (stereo not drawn) | inconclusive [inhibitor, single point] |  |
| CC(OC(=O)Cc1n[nH]c(=O)c2ccccc12)C(=O)N(C)c1ccccc1 (stereo not drawn) | active: 16.4 µM |  |
| CCCC(NC(=O)C(C)N1CCN(S(=O)(=O)c2ccccc2)CC1)c1ccccc1 (stereo not drawn) | inconclusive [inhibitor, single point] |  |
| CC(=O)NC(=O)COC(=O)/C=C/c1c(C)nn(Cc2c(Cl)cccc2Cl)c1Cl | inconclusive [inhibitor, partial curve, poor fit] |  |
| Cc1cc(C)nc(N/N=C/c2c[nH]c3ccccc23)n1 |  | inactive: 2.74% |
| CCc1nn(CCCC(=O)N2CCN(c3cccc(C)c3C)CC2)c(=O)c2cc3occc3n12 | inconclusive [inhibitor, single point] |  |

| SMILES | Potency | activity change, negative = growth inhibition |
| --- | --- | --- |
| COc1ccc(C(O)c2ncc(-c3ccc4ccccc4c3)[nH]2)cc1F (stereo not drawn) | inconclusive [inhibitor, single point] |  |
| NC(=S)NN=Cc1nccc2c(C(F)(F)F)cccc12 | active: 0.731 µM |  |
| CCc1ccccc1NC(=O)c1cc2c(Cl)nc3ccccc3c2s1 | inconclusive [inhibitor, single point] |  |
| CCCCCN(C(=O)NC(=O)Nc1ccccc1C)S(=O)(=O)c1ccccc1 |  | inactive: -28.3% |
| CC1(C)CC(c2nc(-c3ccc(Br)cc3)cs2)CCS1 (stereo not drawn) | inconclusive [inhibitor, single point] |  |
| CCCOc1cccc(C(=O)Nc2ccc(-c3cc4ccccc4oc3=O)c(C)c2)c1 | inconclusive [inhibitor, single point] |  |
| COc1ccc2nc(SCC(=O)/C(C#N)=C(\C)N)[nH]c2c1 |  | inactive: -7.26% |
| CCOC(=O)c1ccc(NC2=CC(c3ccc(F)cc3)N(c3ccc(C(=O)OCC)cc3)C2=O)cc1 (stereo not drawn) | active: 18.4 µM |  |
| O=C(CCCN1C(=O)/C(=C/c2cccs2)SC1=S)NNC(=O)c1ccc(F)cc1 | inconclusive [inhibitor, single point] |  |
| CC1CCN(C(=O)/C(=C\c2cccs2)NC(=O)c2ccccc2)CC1 | inconclusive [inhibitor, single point] |  |
| COc1ccccc1NC(=O)c1c(NC(=O)c2ccco2)sc2c1CCC2 | inconclusive [inhibitor, single point] |  |
| Cc1c(NC(=O)c2ccc(Br)o2)cccc1-c1nc2ccccc2o1 | active: 23.1 µM |  |
| CN1CCCC(C)(C(=O)Nc2cccc(Oc3ccccc3)c2)C1 (stereo not drawn) | inconclusive [inhibitor, single point] |  |
| COC(=O)c1ccc(-c2nc3ccc(C)cc3o2)cc1 | active: 8.2 µM |  |
| Cc1ccc(NC(=O)c2ccc(S(=O)(=O)C(F)F)cc2)c(C)c1 | inconclusive [inhibitor, single point] |  |
| COCCNC(=O)/C(C#N)=C/c1ccc(O)c([N+](=O)[O-])c1 | inconclusive [inhibitor, single point] |  |
| Cc1ccc(/C=C/c2nnc(-c3cccc(C)c3)o2)cc1 |  | inactive: 12.7% |
| FC(F)(F)c1ccc(Oc2ccc(Cl)cc2Br)nc1 |  | inactive: -10.1% |
| Cc1ccc(S(=O)(=O)c2cc3c(=O)n4ccccc4nc3n(C3CCCCC3)c2=N)cc1 | active: 20.6 µM |  |
| O=C(/C(=N/N=C/c1ccc(O)c(O)c1O)c1ccccc1)c1ccccc1 | inconclusive [inhibitor, single point] |  |
| COc1ccc(C(=O)C(CN2CCOCC2)c2ccccc2)cc1 (stereo not drawn) | active: 3.26 µM |  |
| Cc1cc(CN2CCCCC2C(=O)Nc2ccc(Oc3cccnc3)cc2)oc1C (stereo not drawn) | inconclusive [inhibitor, single point] |  |
| CCc1cccc(CC)c1NC(=O)Cn1c(-c2ccccc2Cl)nc2ccccc21 |  | inactive: -4.91% |
| CN(CC(=O)Nc1ccc(F)c(F)c1F)C(=O)CCN1C(=O)C2CCCCC2C1=O (stereo not drawn) |  | inconclusive: -34.3% [inhibitor] |
| c1ccc2c(NC3CCNCC3)nc(-c3ccoc3)nc2c1 |  | inactive: -2.82% |

| SMILES | Potency | activity change, negative = growth inhibition |
| --- | --- | --- |
| COc1ccc([N+](=O)[O-])cc1NC(=O)CSc1nccc(C)n1 | inconclusive [inhibitor, single point] |  |
| COc1ccc(C)cc1-n1nnnc1SCC(=O)c1ccc2c(c1)OCCO2 | inconclusive [inhibitor, single point] |  |
| Cc1ccccc1Cn1c(SCc2ccc(C(=O)NC3CCCC3)cc2)nc2ccncc21 | inconclusive [inhibitor, partial curve, poor fit] |  |
| CSc1ccccc1NC(=O)CN(C)C(=O)Cn1c(=O)oc2ccccc21 |  | inactive: -24.8% |
| CC(C)CCC[C@@H](C)[C@H]1CC[C@H]2[C@@H]3CC[C@@H]4C[C@H](O)CC[C@]4(C)[C@H]3CC[C@]12C |  | inactive: -20.1% |
| CCOc1cc(S(=O)(=O)NCc2ccccc2)c(OCC)cc1-n1cnnn1 |  | inactive: -10.4% |
| CCN1CCN(c2nc(-c3ccccc3)nc3ccccc23)CC1 | active: 29.1 µM |  |
| O=C(COc1ccccc1)N1CCN(S(=O)(=O)c2ccc(Br)cc2)CC1 |  | inactive: -28.8% |
| Cc1nc2c(c(C)nn2-c2ccccc2)c(C)c1CCC(=O)NCCc1ccc(Cl)cc1 | inconclusive [inhibitor, partial curve] |  |
| Cc1ccc(N/C=C(\C#N)S(=O)(=O)c2ccccc2)cc1 |  | inactive: -11.6% |
| O=C(CSc1nnc(Nc2ccccc2F)s1)NC1CCCC1 |  | inactive: -13.1% |
| CCN1CCN(c2ccc(NC(=O)c3cc(OC)c(OC)c(OC)c3)cc2)CC1 |  | inactive: 2.65% |
| COc1ccc(OC)c(NC(=O)Cc2cccs2)c1 |  | inactive: -10.7% |
| Cc1cc(=O)oc2cc(OCC(=O)OCC(=O)N(C)C3CCS(=O)(=O)C3)ccc12 (stereo not drawn) |  | inactive: -7.5% |
| CCOC(=O)C1CCN(C(=O)CCNS(=O)(=O)c2ccc(C)cc2)CC1 | inconclusive [inhibitor, single point] |  |
| COc1ccc(NC(=O)c2ccccc2)cc1 | inconclusive [inhibitor, single point] |  |
| COc1cc(C2NC(=O)c3c(sc4c3CCN(C)C4)N2)ccc1OC(=O)c1ccccc1 (stereo not drawn) | inconclusive [inhibitor, single point] |  |
| CCNC(=S)N(Cc1cc2cc(C)ccc2[nH]c1=O)C1CCCC1 | inconclusive [inhibitor, single point] |  |
| O=C1NC2(CCCC2)N=C1c1ccc(Cl)cc1 |  | inactive: 0.494% |
| COc1ccc(C(=O)N(C)CC2CCN(CCc3cccc(C(F)(F)F)c3)CC2)cc1C | inconclusive [inhibitor, single point] |  |
| O=C(NCCc1ccccc1)C1Cc2c(-c3ccc(Cl)cc3)ccnc2O1 (stereo not drawn) | inconclusive [inhibitor, single point] |  |
| Cc1ccc(OCc2nc(C#N)c(N3CCCC3)o2)cc1 | inconclusive [inhibitor, single point] |  |
| C/C(CC(=O)Nc1ccc(Cl)c(C(F)(F)F)c1)=N\NC(=O)c1cnccn1 |  | inactive: -26.5% |
